Test results: PubChem BioAssay AID686970 (National Center for Advancing Translational Sciences (NCATS), 2013)
Out of some 360,000 compounds screened, about 6,000 (1.7%) were called active. The shares of active, inactive and inconclusive entries below differ from those in the screen. Calls follow the shape of the dose curve; as a rule, active = well fitted cell-killing curve with a large enough effect; inconclusive = small, poorly fitted or top-dose-only effect, or effect the other way; inactive = flat fitted curve, though single readings scatter. Potencies of inconclusive entries are left out as doubtful fits.

Assay: qHTS for induction of synthetic lethality in tumor cells producing 2HG: qHTS for the HT-1080-NT fibrosarcoma cell line;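 also: NT is the 2HG producing partner of a matched IDH1 knockdown line; nearly all actives have a fitted effect of over 55% in size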;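 as to activity, negative = less viability: 0% = DMSO-treated cells and -100% = media-only wells without cells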
Conditions: HT-1080-NT fibrosarcoma viability, CellTiter-Glo ATP luminescence, 48 h; activity, negative = less viability: at 46.1 µM (top of the series) unless noted
Method in brief: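 750 cells/well, RPMI + 5% FBS; 2 h settle, compound pin-transfer, 48 h at 37 degrees C. CellTiter-Glo 10 min RT, luminescence. Normalized to DMSO and media-only wells.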
Potency is read from the fitted curve at half-maximal effect; tags tell the direction and shape of the fitted curve.

Structure (SMILES) | Potency | activity, negative = less viability
Cc1c(Cl)c([N+](=O)[O-])nn1CCCC(=O)NCCc1ccccc1 | inactive | 
Cc1c(Br)c([N+](=O)[O-])nn1CC(=O)Nc1c(C)n(C)n(-c2ccccc2)c1=O | inactive | 
C[C@@H]1CN([C@H](C)CO)S(=O)(=O)c2ccc(C#CC3CCCC3)cc2O[C@H]1CN(C)C(=O)Cc1ccccc1 | inconclusive [cytotoxic, single point] | 
COc1ccc(/C=C/C(=O)c2ccncc2)c2ccccc12 | inconclusive [cytotoxic, single point] | 
Cc1cc(NC(=O)CSc2nc3ccccc3c(=O)n2C(C)c2ccccc2)no1 (centres undefined) | inconclusive [cytotoxic, partial curve] | 
COc1c(OC)c(O)c2c(=O)c(O)c(-c3ccccc3)oc2c1OC | inconclusive [cytotoxic, single point] | 
Cc1nc(Nc2nc(-c3ccccc3)cc(=O)[nH]2)nc2ccccc12 | inconclusive [cytotoxic, single point] | 
COc1cc(/C=C2\N=C(c3ccccc3)NNC2=O)cc(OC)c1OC | active: 4.61 µM | 
COc1cc(C(=O)OCCc2cc3ccccc3c(=O)o2)cc(OC)c1OC | active: 8.2 µM | 
OC(c1ccc(Cl)cc1)c1ncc(-c2cccc(C(F)(F)F)c2)[nH]1 (centres undefined) | inconclusive [cytotoxic, single point] | 
CC(=O)c1ccc2c(c1)OCCOCCOCCOCCOCCO2 | inconclusive [rising, single point] | 
CN1CCN(c2nc(Nc3cccc(C(F)(F)F)c3)nc(N3CCOCC3)n2)CC1 | inconclusive [cytotoxic, single point] | 
CCOC(=O)c1sc2ccc(S(=O)(=O)N3CCOCC3)cc2c1N | inactive | 
O=C(NC(Cc1c[nH]c2ccccc12)C(=O)Nc1ccc(F)c([N+](=O)[O-])c1)c1cccs1 (centres undefined) |  | inconclusive: -42.5% [cytotoxic]
CCCN1CCN(C(=O)c2cn(CC(C)C)c(=O)c3cc(OC)c(OC)cc23)CC1 |  | inconclusive: 7.98%
O=c1onc(-c2ccccc2Cl)n1-c1ccccc1Cl | inactive | 
CC1CCCC(C)N1C(=S)SCC(=O)O (centres undefined) | inconclusive [rising, full curve, poor fit] | 
CSc1nc2c(C)c(C)c(C)c(C)c2[nH]1 | inconclusive [cytotoxic, partial curve, poor fit] | 
O=C(Nc1nnc(Cc2ccccc2)s1)c1ccco1 | inconclusive [cytotoxic, partial curve] | 
Cc1oc(-c2ccc(Cl)cc2)nc1CS(=O)CC(=O)NCCCN1CCCC(C)C1 (centres undefined) | inconclusive [cytotoxic, single point] | 
CC(C)(C)c1ccc(C(=O)NCCN2CCOCC2)cc1 | inactive | 
COC1CCN(C(=O)CC2C(=O)NCCN2CC(C)(C)C)CC1 (centres undefined) |  | inconclusive: 27.6%
COc1ccc(-c2ccc(C(=O)Nc3cccc(F)c3)c3occc23)c(C)c1 | inconclusive [cytotoxic, single point] | 
CCOc1cc(/C=C(\C#N)c2nc3ccccc3[nH]2)ccc1OC(C)C(=O)O (centres undefined) | inactive | 
CCc1ccc(C(O)c2ncc(-c3cccc(C(F)(F)F)c3)[nH]2)cc1 (centres undefined) | active: 23.1 µM | 

Structure (SMILES) | Potency | activity, negative = less viability
CCCCC1CC2=C(C(=O)OC(C)(C)O2)C(c2ccc3ccccc3c2)O1 (centres undefined) | inconclusive [cytotoxic, single point] | 
COC(=O)c1cc(Cl)c(NC(=O)c2ccc(F)cc2)cc1OC | inconclusive [cytotoxic, single point] | 
Clc1ccc(SCCCCN2CCNCC2)cc1 | inconclusive [cytotoxic, single point] | 
Cc1cc(Oc2ccccc2)nc(-c2ccccc2)n1 | inactive | 
CS(=O)(=O)c1ccc2nnn(OCC(=O)Nc3ccc(Br)cc3Br)c2c1 | inconclusive [cytotoxic, single point] | 
Cc1cccc(NC(=O)Nc2cccc(Oc3c(F)c(F)c(F)c(F)c3F)c2)c1 | inconclusive [cytotoxic, partial curve] | 
COc1ccc2c(c1OC)c(=O)n1c3ccc(OC(C)C(=O)NCCCN4CCOCC4)cc3c3ccnc2c31 (centres undefined) | inactive | 
COc1ccccc1C(=O)Nc1nc2cc3c(cc2s1)OCO3 | inactive | 
O=c1ccc(-c2nc3ccccc3n2C(CCc2ccccc2)c2nc3ccccc3[nH]2)c[nH]1 (centres undefined) | inactive | 
c1ccc(-c2ccnc3nc(-n4cccc4)nn23)cc1 | inconclusive [cytotoxic, single point] | 
COC(=O)[C@@]12C[C@@H](CC(=O)N3CCSCC3)C(=O)N(Cc3ccccc3)C1=CCC(C)(C)C2 | inactive | 
CCOc1cccc(-n2nnnc2-c2ccc(OC)cc2)c1 | active: 5.8 µM | 
CCCc1nc2ccc(C)cn2c1Cc1ccccc1C(F)(F)F | active: 25.9 µM | 
Cc1ccc(C(=O)Nc2sc3c(c2C(=O)O)CCCCC3)o1 | active: 20.6 µM | 
COc1ccc2[nH]cc(/C=N/NS(=O)(=O)c3ccc(C)cc3)c2c1 | inconclusive [cytotoxic, single point] | 
Cc1cccc(COCC(Cc2ccccc2)N2CCN(C(=O)c3cc(Cl)cc(Cl)c3)CCC2=O)c1 (centres undefined) | inconclusive [cytotoxic, partial curve] | 
COCCCNCCCCOc1c(Cl)cc(C)cc1Br | inconclusive [cytotoxic, single point] | 
CCCCCc1nnc(NC(=O)c2cccc(S(=O)(=O)N3CCOCC3)c2)s1 | inactive | 
Cc1ccccc1CS(=O)(=O)c1cnc2ccccc2n1 | active: 23.1 µM | 
COC(=O)c1ccc(NC(=O)COC(=O)c2nc3nccc(C)n3n2)cc1 | inconclusive [rising, partial curve] | 
CCC(Oc1ccccc1)C(=O)Nc1nnc(C)s1 (centres undefined) | inactive | 
CC1CCc2c(sc(NC(=O)c3cccs3)c2C(=O)O)C1 (centres undefined) | inconclusive [cytotoxic, partial curve] | 
CCOC(=O)C(CC)n1cnc2c(oc3ccccc32)c1=O (centres undefined) | inactive | 
CCCCNc1c(-c2ccc(OC)c(Sc3ccc(OC)cc3)c2)nc2ccccn12 | inconclusive [cytotoxic, single point] | 
CC(=O)OC1CC(c2cc(C(C)(C)C)c(O)c(C(C)(C)C)c2)=NO1 (centres undefined) | inconclusive [cytotoxic, single point] | 

Structure (SMILES) | Potency | activity, negative = less viability
CSc1ccc(CN2CCC(C)(Oc3cccc(Cl)c3)C2)cc1 (centres undefined) | inactive | 
CCOC(=O)c1sc(N)c(C(=O)Nc2ccccc2OC)c1C | inconclusive [cytotoxic, partial curve] | 
CC1=C(C)/C(=N\OS(=O)(=O)c2ccc(C)cc2)C=CC1=O | active: 13 µM | 
COc1ccccc1NC(=O)Cc1csc(NC(=S)Nc2ccc(C)cc2)n1 | active: 6.31 µM | 
CNC(=S)NNC(=O)COc1ccccc1C | inconclusive [cytotoxic, single point] | 
COc1cccc(C(O)c2nc(-c3ccc(Cl)cc3)cs2)c1 (centres undefined) | inconclusive [cytotoxic, single point] | 
CC1(C)C(C=C(Cl)Cl)C1C(=O)N(Cc1ccc(Cl)cc1)C1CCS(=O)(=O)C1 (centres undefined) | inconclusive [cytotoxic, partial curve] | 
CN(C)c1ccc(C(CNC(=O)Cc2cccc3ccccc23)N(C)C)cc1 (centres undefined) | inactive | 
COc1ccc(S(=O)(=O)NC(=O)C2(C)CCN2C(=O)c2c(C)noc2C)cc1 (centres undefined) | inconclusive [rising, partial curve] | 
COc1ccc(C(=O)N2CCN(C)C(=O)[C@@H]2C)cc1OC1CCN(C(C)C)CC1 | inactive | 
CCCCn1c(N)c(N(C)C(=O)c2cccc(-n3cnnn3)c2)c(=O)[nH]c1=O | inactive | 
CC(C)CC(NC(=O)OCc1ccccc1)C(=O)NC(Cc1c[nH]c2ccccc12)C(=O)O (centres undefined) | inconclusive [rising, single point] | 
O=C(NCC(c1cccs1)N1CCOCC1)c1ccc(OCc2ccccc2)cc1 (centres undefined) | inactive | 
COc1ccc2nc(NC(=O)c3cnccn3)sc2c1 | active: 11.2 µM | 
Cc1ccsc1C(=O)NNC(=O)c1ccncc1 | inactive | 
CCc1ccc(N(C(=O)c2snc(C(N)=O)c2N)C(C(=O)NC2CCCC2)c2ccncc2)cc1 (centres undefined) | inconclusive [cytotoxic, single point] | 
CCN(Cc1ccccc1)S(=O)(=O)c1ccc(C(=O)Nc2nnc(C)o2)cc1 | inactive | 
COCCNC(=O)C1(C)CCN(C(=O)c2cccnc2Oc2ccccc2)C1 (centres undefined) | inconclusive [rising, partial curve] | 
O=S(=O)(c1ccc(Cl)c(F)c1)N1CCC(c2nc(-c3ccncc3)no2)CC1 | inconclusive [cytotoxic, full curve, poor fit] | 
CC(C)(C)C1=CC(=O)C(=O)C(C(C)(C)C)=C1 | inconclusive [cytotoxic, single point] | 
Cc1cc2ccccc2n1CCNCc1c(C(=O)N2CCOCC2)nc2ccccn12 | inconclusive [cytotoxic, single point] | 
COc1c(C)cc(Br)cc1C(=O)Nc1ccc(Cc2ccncc2)cc1 | inconclusive [cytotoxic, single point] | 
C=CCn1c(SCc2c(C)noc2C)nnc1C1COc2ccccc2O1 (centres undefined) | inactive | 
Cc1ccc(Nc2c([N+](=O)[O-])c(=O)oc3ccccc23)cc1C | inconclusive [cytotoxic, full curve] | 
